The other results are listed elsewhere or left out. At the low end of the ranking the order means little.

This experiment has as its target T1, GST-Rok-C97-191 (UniProt O34857).
T1 sequence: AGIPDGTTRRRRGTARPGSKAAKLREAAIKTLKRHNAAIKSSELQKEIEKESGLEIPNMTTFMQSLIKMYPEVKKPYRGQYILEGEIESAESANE
Description: protein binding microarray.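 Note: rank score from −0.5 (least bound) to 0.5 (best bound).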 The following applies: Rok is a gene silencer of Bacillus subtilis; high values mean tight binding; most listed sequences are background and not binding sites; double strand, one strand shown.
Take ATAAAGGC: the binding signal is 0.052 E-score.

On to GTATCTGA, for which the binding signal was 0.0498 E-score. With CCCGTTGC the figure was -0.0267 E-score; with GATGTTCC, -0.0401 E-score; with GTGCTAGA, 0.197 E-score.

For ACCGATGG, the binding signal is -0.203 E-score. The result for TAGTACTA reads 0.402 E-score; that for AATCAAAA, 0.118 E-score. With AAGCTCGG the figure was -0.161 E-score; with GAGCCTCC, -0.354 E-score; with ACTGCTAC, 0.128 E-score. With ATTATAAA the figure was 0.127 E-score; with CTCTGATC, -0.0195 E-score. Sequence ATTAACCG gave a binding signal of -0.0569 E-score. The result for CAAGTTCG reads -0.117 E-score.

CACTCCCG gave a binding signal of 0.0476 E-score. CCTCGAGA had a binding signal of -0.0905 E-score. With CAGCATCG the figure was -0.0978 E-score; with CGCACTTC, -0.175 E-score; with GGTACAAA, 0.216 E-score.

CCGGGTTC gave a binding signal of -0.277 E-score.

Consider GATCTCGC, for which the binding signal was 0.0478 E-score. The result for GTGAGTAA reads 0.204 E-score. The result for ACTGACAC reads -0.0827 E-score; that for AGTCCAAT, -0.0629 E-score; that for AGGCGACT, -0.0944 E-score. With AGATCCGC the figure was -0.0808 E-score. Take CGATTCAG: the binding signal was -0.0158 E-score.

ACCCAGGT: the binding signal was -0.124 E-score. The result for ATATCTGA reads -0.00207 E-score; that for AGGAATTA, 0.141 E-score. With ATACGACG the figure was 0.172 E-score; with ACCTCAGG, -0.0604 E-score.

As to ATCTACTG, the binding signal was found to be 0.423 E-score.

CCTAGGTC gave a binding signal of -0.196 E-score. Sequence ATCGACCA displayed a binding signal of -0.0614 E-score. The result for CGCCGCTA reads 0.141 E-score. The result for ACCATCCT reads -0.0227 E-score; that for ATATGCCA, -0.149 E-score.

Sequence CGAGCGCA displayed a binding signal of -0.109 E-score.

ATGAAAAG came in with a binding signal of 0.0153 E-score. With CGATGCTA the figure was 0.0302 E-score; with AAAATGTT, 0.122 E-score; with CATCAAAC, -0.0913 E-score. In turn, AGCACGAA came in with a binding signal of 0.0692 E-score.

CCTCGATA registered a binding signal of -0.104 E-score. Sequence AGCCGACC displayed a binding signal of -0.0312 E-score. The result for AGACACTC reads -0.137 E-score; that for ATTATTAA, 0.199 E-score; that for ATAGAGCG, 0.0195 E-score. AGGATCCC came in with a binding signal of -0.0748 E-score. Turning to ACAGTCTG, the binding signal was -0.241 E-score. The result for GCCATACC reads -0.158 E-score; that for TACACCCA, 0.145 E-score.

Take TGAATCAA: the binding signal was -0.285 E-score. On to GGGTCTAA, for which the binding signal was -0.233 E-score.

With CACGTAGA, the binding signal was -0.0653 E-score. With AGTGGGCG the figure was -0.0379 E-score; with AATTTGAC, 0.137 E-score; with TTTCAAAA, -0.125 E-score. The result for ATCGTGAG reads -0.138 E-score; that for ATATATCC, 0.268 E-score; that for CAATATAG, 0.199 E-score.

The sequence GCTACTCA gave a binding signal of 0.0267 E-score. The result for CGAAAGCA reads -0.187 E-score; that for AGCAGCGG, -0.239 E-score. With TAGTTGCA the figure was 0.241 E-score; with ATAAACAG, 0.119 E-score; with CCTTACTC, -0.147 E-score.

Take CTGACACA: the binding signal was -0.0388 E-score. The result for ACGCTTAA reads 0.056 E-score.

CAGCCGCG came in with a binding signal of -0.288 E-score. With GTTCCCGA the figure was -0.0667 E-score; with GGTCCACA, -0.113 E-score. The result for AAGGGTCC reads -0.105 E-score; that for ACTAGTGA, 0.279 E-score. In the case of GATAGTTA, the binding signal was 0.373 E-score. The result for AACCGTAA reads 0.0748 E-score; that for CACTGACA, -0.104 E-score; that for AGATCCAG, -0.159 E-score. For the sequence ATTCGAGA, the binding signal turned out to be 0.0852 E-score. With ATCTTGAA the figure was 0.0632 E-score; with ACTCAATA, 0.243 E-score; with ACGTTTAA, -0.0428 E-score.

In turn, GAGTAATA returned a binding signal of 0.182 E-score.

On to CGCATAAA, for which the binding signal came out at 0.0601 E-score. The result for CTCGAACA reads 0.0547 E-score; that for CATCAGAG, -0.134 E-score. With CTTACAAC, the binding signal amounted to 0.116 E-score. As for CTATGCGC, the binding signal is -0.0129 E-score. In turn, CCGGTTTC showed a binding signal of -0.169 E-score.

GAAATCCA had a binding signal of 0.0437 E-score. ATTGTAGA gave a binding signal of 0.249 E-score. The result for CCAATAGG reads -0.066 E-score; that for ATTCGATC, 0.263 E-score. With ACTGTCAC the figure was 0.00386 E-score; with TCTACTAA, 0.342 E-score; with TCTAGCAA, 0.213 E-score. The result for CGGGCGGC reads -0.394 E-score.

As to AGAACTCC, the binding signal was -0.0816 E-score.

For the sequence TCTATTAA, the binding signal is 0.164 E-score. Sequence GAGCAAGA returned a binding signal of -0.102 E-score.

Turning to AGCTCCTA, the binding signal was 0.0277 E-score.

Consider AGGAACCC, for which the binding signal was -0.0447 E-score. With TAAATAGA the figure was 0.216 E-score; with ATCGAATC, 0.0814 E-score; with TACCGCTA, 0.179 E-score. With AACCCAGA the figure was -0.00415 E-score; with CCATTTAG, 0.0457 E-score; with AGTAAAGA, 0.0717 E-score.

As to TCAGCTGA, the binding signal was -0.133 E-score. With AACATACC the figure was 0.247 E-score; with TATGTCAA, 0.108 E-score; with ATAGAAGC, 0.195 E-score.

On to AAGTTTTG, for which the binding signal amounted to 0.0673 E-score. Regarding ACGAAATA, the binding signal stood at 0.193 E-score. With TAGATAGA the figure was 0.345 E-score; with CCCGTGCC, -0.38 E-score. The result for CAGTCGCA reads -0.223 E-score.

For CATTGGTC, the binding signal is -0.0344 E-score.

GACTCCTA yielded a binding signal of 0.0377 E-score.

Take AGCATTAG: the binding signal was 0.148 E-score.

For the sequence CTTACTGA, the binding signal was 0.133 E-score. Regarding GAATGACC, the binding signal was -0.153 E-score.

For GGCTCGTA, the binding signal was -0.0948 E-score. The sequence GCATTCGC had a binding signal of -0.249 E-score. The result for ATATTGCA reads -0.0461 E-score; that for ACAGATTG, -0.117 E-score; that for ATTGCCGG, -0.00953 E-score.

For the sequence CCAGCCAG, the binding signal is -0.278 E-score. With AGTTTGAA the figure was -0.00731 E-score; with GCAATCAC, 0.106 E-score; with AAACAGCC, -0.174 E-score.

Sequence AGTATTGG returned a binding signal of -0.0633 E-score.

Sequence ATTCGTTC displayed a binding signal of 0.0172 E-score. With CTTCAATA the figure was 0.0793 E-score; with ACAGACGT, 0.0363 E-score. With GTGGTCCA the figure was -0.143 E-score; with ACATGGGT, 0.0579 E-score. Consider CACGTAAG, for which the binding signal is -0.041 E-score. ATTCTACG showed a binding signal of 0.179 E-score. The result for GGTCAATA reads 0.102 E-score; that for ACAAGCCA, -0.228 E-score. With AATCCTAC the figure was 0.226 E-score; with CTTATGCA, -0.0393 E-score. As to CTGACTTC, the binding signal is -0.115 E-score. The result for AACGCTAA reads 0.196 E-score. With GCACTCCA the figure was -0.0612 E-score; with GTTCCATA, -0.0288 E-score. With CGGGATTC the figure was -0.122 E-score. AAACCACG: the binding signal worked out at 0.0774 E-score. The result for AGACTATA reads 0.28 E-score; that for CGGACTAC, -0.00479 E-score. The result for TCATCAAA reads 0.0122 E-score; that for AACGGCCC, -0.138 E-score.

For the sequence TCTAGTAA, the binding signal turned out to be 0.265 E-score. Sequence GTCTCAGA displayed a binding signal of -0.201 E-score. The result for ATGAGAGG reads -0.162 E-score; that for AGGCGGAT, -0.209 E-score; that for ACAAACAT, 0.239 E-score.

The sequence AGTCTTAA yielded a binding signal of -0.138 E-score.

Sequence CATTGGGG returned a binding signal of -0.353 E-score. With AGGCGGCG the figure was -0.155 E-score. Regarding GTTTCGAA, the binding signal is 0.0337 E-score. With AAGCAATT the figure was 0.315 E-score; with AGATGGAG, -0.0786 E-score. As for GGATTTCA, the binding signal turned out to be 0.00664 E-score. The result for GTACTAAA reads 0.329 E-score; that for CCGGCTAG, -0.0397 E-score; that for TACCGTAA, 0.278 E-score. With CACATCTG the figure was -0.197 E-score; with AGTCCACT, -0.00972 E-score.

Source of the values: publication PMC6212790.
